In patent publication US9924715B2, “Zinc or copper (II) salt and use thereof as a biocide” (LABORATORIYA BIO ZET, LLC, priority 2014, dated 2018):

Test system: human immunodeficience virus (HIV)
Experiment: Virucidal activity, suspension test in vitro (MU 3.52431-08)
Type: cell-based
Details: conclusion from Table 2
Description: Virucidal activity of copper acrylate-propionate obtained as described in example 4 was investigated by analogy with examples 14-19.
Virucidal activity of zinc methacrylate-myristate obtained as described in example 11 was investigated by analogy with examples 14-19.

With `C=C(C)C(=O)[O-].CC(=O)[O-].[Zn+2]` [Zinc methacrylate-acetate, zinc methacrylate-acetate] the “Virucidal activity (criterion for disinfectants: inhibition not less than 4 lg TCID50)” value was “does not substantially exhibit virucidal activity”.
